# Assay results: publication PMC4336329 (PLoS ONE, 2015)
# About 14,000 (4.5%) of roughly 310,000 compounds showed an effect of 50% or more. Effects have a minus sign here. The list shows a part of the results.
# Molecular target: human ether-à-go-go-related gene (hERG) potassium channel (human, UniProt Q12809)
# Assay: primary screen, population patch clamp on CHO cells stably expressing hERG
# 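Note: peak tail current of the secondary pulse compared with the same well before compound.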
# Chain of human ether-à-go-go-related gene (hERG) potassium channel (Q12809 whole entry, looked up): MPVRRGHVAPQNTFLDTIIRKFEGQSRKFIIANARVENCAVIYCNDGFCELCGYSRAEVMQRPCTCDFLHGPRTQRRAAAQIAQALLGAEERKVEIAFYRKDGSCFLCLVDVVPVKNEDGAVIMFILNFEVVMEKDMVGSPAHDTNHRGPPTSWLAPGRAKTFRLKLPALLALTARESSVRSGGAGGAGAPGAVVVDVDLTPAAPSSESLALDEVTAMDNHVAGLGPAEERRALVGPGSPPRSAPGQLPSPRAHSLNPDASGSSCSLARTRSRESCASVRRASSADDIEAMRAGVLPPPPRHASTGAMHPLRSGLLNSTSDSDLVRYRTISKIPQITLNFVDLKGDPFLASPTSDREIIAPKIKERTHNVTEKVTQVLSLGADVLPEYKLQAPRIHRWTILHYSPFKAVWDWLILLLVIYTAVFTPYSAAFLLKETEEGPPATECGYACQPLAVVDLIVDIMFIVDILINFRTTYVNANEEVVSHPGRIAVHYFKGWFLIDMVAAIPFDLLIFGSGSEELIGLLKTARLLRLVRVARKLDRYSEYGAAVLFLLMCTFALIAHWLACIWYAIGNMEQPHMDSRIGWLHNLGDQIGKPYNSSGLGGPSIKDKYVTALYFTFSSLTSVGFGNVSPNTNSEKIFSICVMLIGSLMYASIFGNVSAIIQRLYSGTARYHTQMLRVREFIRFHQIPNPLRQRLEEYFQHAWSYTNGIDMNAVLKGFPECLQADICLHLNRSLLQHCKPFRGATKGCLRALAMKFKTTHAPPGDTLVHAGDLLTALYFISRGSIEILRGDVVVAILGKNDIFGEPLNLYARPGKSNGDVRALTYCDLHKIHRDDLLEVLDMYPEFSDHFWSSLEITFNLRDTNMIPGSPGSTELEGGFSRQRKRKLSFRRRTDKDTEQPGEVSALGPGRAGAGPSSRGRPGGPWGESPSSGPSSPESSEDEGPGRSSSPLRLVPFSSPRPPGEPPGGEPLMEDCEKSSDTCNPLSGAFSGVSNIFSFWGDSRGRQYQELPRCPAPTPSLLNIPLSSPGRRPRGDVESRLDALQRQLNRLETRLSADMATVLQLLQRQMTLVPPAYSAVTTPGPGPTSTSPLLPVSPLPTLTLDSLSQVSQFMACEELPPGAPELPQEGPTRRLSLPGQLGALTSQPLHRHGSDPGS
row,Structure (SMILES),"hERG current change (%, negative = inhibition) at 10uM"
1,NC(=O)c1cc([N+](=O)[O-])ccc1Nc1ccccc1,-3.26%
2,Cc1cc(=O)n2[nH]c(-c3ccsc3-n3c(C)ccc3C)cc2n1,-14.1%
3,CN1C(=O)c2ccc(Oc3ccccc3)cc2C1=O,-5.03%
4,COc1ccc(Nc2cc(C)nc3ncnn23)cc1Cl,-39.5%
5,COC(=O)C1=C(C)N(C)C(C)=C(C(=O)OC)C1c1ccccn1,5.08%
6,COc1cc(/C=C/C(=O)OCC(=O)N(C)CC(=O)Nc2ccc(F)cc2)ccc1OC(F)F,-48%
7,CCOc1ccc(N=Nc2c(=O)[nH]n3c(C)cc(C)nc23)cc1,-1.7%
8,COc1cccc(OC)c1C(=O)N1CCNCC1.O=C(O)C(=O)O,12.5%
9,NC(=O)C1CCN(C(=O)CCC(=O)c2ccc(F)cc2)CC1,17.4%
10,O=C(CN1CCOCC1)N1CCCc2ccccc21.O=C(O)C(=O)O,22.4%
11,O=C(Nc1cccc(Cl)c1)NC1CC2CCC(C1)N2Cc1ccco1 (centres unmarked),-10.5%
12,Cc1nnc(SCC(=O)Nc2cc(S(=O)(=O)N3CCCC3)ccc2Cl)s1,-7.16%
13,CC(C)OC(=O)CSc1nnc(CNc2ccc(Cl)cc2)n1Cc1ccccc1,-33%
14,O=C(COC(=O)C1CC1)NC(=O)NCc1ccccc1,22.6%
15,C/C(=C\c1cc2ccccc2o1)C1Nc2cccc3cccc(c23)N1,9.36%
16,Cc1c(Cl)cccc1NC(=O)CNC(=O)Cc1c[nH]c2ccccc12,0.839%
17,Cc1cc(Cl)ccc1OCC(=O)N1CCCCC1,-0.846%
18,COc1ccc(-c2nc3ccc(C(=O)NCCCN4CCOCC4)cc3nc2-c2ccc(OC)cc2)cc1,9.44%
19,Cl.Clc1ccccc1CSC1=NCCCN1,0.0434%
20,CC(NC(=O)c1ccco1)C(c1cccs1)N1CCN(c2ccccc2)CC1 (centres unmarked),-21.3%
21,Cc1ccccc1CC(=O)Nc1cccc(S(=O)(=O)N2CCCC2)c1,-3.62%
22,O=C(O)c1ccc(S(=O)(=O)N(Cc2ccccc2)Cc2ccccc2)cc1,12%
23,COc1ccc(C(C)=O)c2c(O)cccc12,-2.9%

row,Structure (SMILES),"hERG current change (%, negative = inhibition) at 10uM"
1,CCC(C)(C(=O)NC1CCCCC1)N(Cc1cccs1)C(=O)c1ccccn1 (centres unmarked),3.38%
2,COc1ccc2oc(C(=O)OCC(=O)Nc3ccccc3OC)c(C)c2c1,7.07%
3,O=C(O)CCN1C(=O)C2CCCCC2C1=O (centres unmarked),6.28%
4,CC1CCN(CCCNC(=O)c2ccc3c(=O)n(Cc4ccc(Cl)cc4)c(=S)[nH]c3c2)CC1,-68.4%
5,CCOC(=O)c1nnc(-c2ccc(C)cc2)nc1N1CCSCC1,-35%
6,CN1CCN(c2ccc(NC(=O)c3ccccc3)cc2)CC1,-0.717%
7,CCCc1nc2nc(C)c(NS(=O)(=O)c3ccc(Cl)cc3)c(=O)n2[nH]1,17.4%
8,Cc1cc(C)n2nc(C(=O)N3CCOCC3)nc2n1,8.2%
9,Cc1cc(C)c(C)c(OCC(=O)O/N=C(\N)c2cccnc2)c1,4.71%
10,Cc1cc(C(F)(F)F)nn1CC(=O)N1CCOCC1,-7.96%
11,O=C1CC(C(=O)Nc2cccc(F)c2)n2ncnc2N1 (centres unmarked),7.95%
12,COc1ccccc1/C=C/C(=O)NNC(=O)c1cc(C)oc1C,-1.1%
13,O=C1NC(=O)C(Cc2cccs2)C(=O)N1,-1.48%
14,CCOC(=O)c1c(C)oc(NC(=O)CCl)c1C(=O)OCC,6.84%
15,CC(=O)Nc1ccccc1C(=O)C(=O)Nc1cccc(C(=O)NC2CC2)c1,-2.48%
16,CCOc1cc(N2CCOCC2)c(OCC)cc1NC(=O)COc1cccc(CC)c1,17.9%
17,CC(C)CN1CCN=C1N(C)C,15.5%
18,CCCCCn1c(=O)c(C(=O)OCC)c(O)c2ccccc21,-64%
19,COc1ccccc1N1CCN(CCCNC(=O)C2CCCN(c3ncnc4c3nc3n4CCCCC3)C2)CC1 (centres unmarked),-40.3%
20,O=C(N/C(=C/c1cccs1)C(=O)N1CCCC1)c1ccccc1,6.44%
21,O=C(Nc1ccccc1-c1ccccc1)NC1CCN(C(=O)N2CCOCC2)CC1,6.43%
22,COc1ccc(C(=O)N2CCN(S(=O)(=O)c3ccc(C)cc3)CC2)cc1S(=O)(=O)N1CCOCC1,-5.59%
23,CCN(CC(=O)Nc1ccc(OC)cc1)C(=O)CCc1nc2ccccc2c(=O)[nH]1,-6.11%

row,Structure (SMILES),"hERG current change (%, negative = inhibition) at 10uM"
1,Cc1ccc(NC(=O)CN2C(=O)C3CC=C(Cl)CC3C2=O)cc1 (centres unmarked),-4.45%
2,O=S(=O)(Cc1ccccc1Cl)NCCc1ccc(F)cc1,9.08%
3,CCN(CC)CCN1C(=O)C2C(C(=O)Nc3ccc(Br)cc3)C3C=CC2(O3)C1C(=O)NC1CCCCC1 (centres unmarked),-36.5%
4,N#Cc1ncn(-c2ccc(Oc3ccccc3)cc2)c1N,-21%
5,CN(Cc1cnccn1)Cc1nc(Cc2cccc(F)c2)no1,6.67%
6,CCOc1ncccc1C(=O)OCC(=O)N1CCN(S(=O)(=O)c2ccc(Cl)cc2)CC1,-7.08%
7,CCCCc1nc(NCC2CCCO2)c(C#N)c2c1COC(C)(C)C2 (centres unmarked),0.983%
8,CN(C)c1cccc(C(=O)OCCCC(=O)c2ccc(F)cc2)c1,-19.1%
9,CCOc1ccc(NC(=O)N2CCC(NC(=O)c3ccco3)CC2)cc1,-14.4%
10,C/C=C\C=C/C(=O)Nc1cccc(C2=NOC3(C2)C[C@H](C(N)=O)N(C(=O)c2ccc(OC)cc2)C3)c1 (some centres unmarked),11.1%
11,CCOC(=O)c1c(NC(=S)Nc2cc([N+](=O)[O-])ccc2OC)sc2c1CCCCC2,-4.16%
12,CC(C)S(=O)(=O)c1csc(C(=O)Nc2ccc(F)cc2)c1N,-12%
13,CCOCC(=O)Nc1cc(Cl)c(OC)cc1OC,9.61%
14,O=C(NCc1cccnc1)C1CCCN(S(=O)(=O)c2cccc3nsnc23)C1 (centres unmarked),-21.2%
15,COc1ccc(C(=O)NCN2CCN(c3ccccc3)CC2)cc1OC,2.97%
16,Cl.Fc1ccc(COc2ccc(Br)cc2CNCc2ccncc2)cc1,-74.7%
17,O=C(NC1CC1)C1Nc2ccc(OC(F)(F)F)cc2C2C=CCC12 (centres unmarked),-4.94%
18,Cc1ccc(C2CCN(C(=S)NC3CCCCC3)C2)cc1 (centres unmarked),-5.82%
19,Cc1c(NC(=O)CCC2CCCCC2)c(=O)n(-c2ccccc2)n1C,-6.47%
20,O=C(c1ccccc1F)N1CCCC(c2ccccc2)C1 (centres unmarked),16.7%
21,Cc1ccc(S(=O)(=O)N2CCN(C(=O)COC(=O)c3ccc([N+](=O)[O-])o3)CC2)c(C)c1,-17.6%
22,CCC1CCC/C1=N\NC(=O)c1ccccc1Cl (centres unmarked),19.2%
23,Cn1c(SCC(=O)NCc2ccccc2)nnc1-c1ccc(NC(=O)CCc2ccccc2)cc1,0.902%

row,Structure (SMILES),"hERG current change (%, negative = inhibition) at 10uM"
1,CCNc1nc(NC(C)C)nc(NS(=O)(=O)c2ccc(N)cc2)n1,-6.03%
2,CN(CC1COc2ccccc2O1)C(=S)Nc1ccccc1 (centres unmarked),-16.5%
3,CCCn1nnc(NC(=O)c2ccc(OCC)c(Cl)c2)n1,-3.85%
4,Cc1cccc(C(=O)Oc2ccccc2C2C[C@]3(C)CC(=O)NC3N2C(=O)c2cccc(C)c2)c1 (some centres unmarked),-10.8%
5,CCOc1cc(/C=N/NC(=O)CN2CCCCC2)ccc1OCc1ccccc1,-59.9%
6,CCCCN=C1NN=C(c2cccc([N+](=O)[O-])c2)CS1.Cl,-4.82%
7,Fc1cccc(Cl)c1CSc1nnc(CN2CCOCC2)n1-c1ccccc1,-8.63%
8,COc1ccccc1N(CC(=O)NCc1ccc(F)cc1)C(=O)CCC(=O)Nc1ccccn1,5.6%
9,CC1(OC(=O)c2cccs2)C(=O)C=C2C=C3CCCN3C=C2C1=O (centres unmarked),13.4%
10,Nc1nonc1-n1nnc(C(=O)N/N=C/c2cccnc2)c1-c1ccccc1,-1.35%
11,CCOC(=O)C(CCCOc1cccc(OC)c1)C(=O)OCC,-14.9%
12,CCOC(=O)N1CCN(C(=O)CNC2CCCCCCC2)CC1.O=C(O)C(=O)O,15.1%
13,Cc1cccc(C)c1NC(=O)CSc1nc(-c2ccco2)cc(C(F)(F)F)n1,4.77%
14,C=CCn1c(COc2ccc(Cl)cc2)nnc1SCC(=O)N/N=C/c1cccc(O)c1,1.35%
15,CN(C(=O)COc1ccccc1C(=O)NCCc1ccccc1)c1ccccc1,-10.2%
16,COc1ccc(NC(=O)N(Cc2cc3ccc(OC)cc3[nH]c2=O)CC2CCCO2)cc1 (centres unmarked),-46.6%
17,COC(=O)c1ccc(NC(=O)c2cccc(NC(=O)c3ccco3)c2)cc1,-8.01%
18,CC(C)(C)c1ccc(/C=C/C(=O)N2CCc3ccccc3C2)cc1,-2.16%
19,O=C(CNC(=O)c1ccccc1)OCc1ccc([N+](=O)[O-])cc1,-33.9%
20,CCCN1C(=O)/C(=C/c2ccc(C)s2)SC1=Nc1ccc(OC)cc1,12.3%
